Source: article PMC12136788
Some of the results follow.

T1: UNK ZnF1-3 (human, UniProt Q9C0B0 31-174)
T1 sequence: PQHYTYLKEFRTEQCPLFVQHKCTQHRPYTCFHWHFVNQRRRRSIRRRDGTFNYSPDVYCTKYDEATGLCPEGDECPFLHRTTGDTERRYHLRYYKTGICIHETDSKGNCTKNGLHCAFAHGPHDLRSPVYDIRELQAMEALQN

B1: chr16:17900988:17900989:-_ENSMUSG00000003527_ENSMUST00000003621|mus_mus|FALSE|FALSE (ssRNA)
RNA: GGGAGUUCUACAGUCCGACGAUCGUAGGAGCUGAAGCAGACACCAUGAAGGAGUGUCACGUCCUGGCUGGCUUCCUCUCUAGUUUCCUCCCAGGCUUUCUGACUCAACCCAAGACCACUGCCCUCCUACAUCGAUUGACGAUCCAACAGAGGAUUGAGCAUCA
B2: chr14:70842435:70842436:-_ENSG00000213463_ENST00000256366|hu_mus|FALSE|FALSE (ssRNA)
RNA: GGGAGUUCUACAGUCCGACGAUCAACAACCAGCAACCUGUGCUGUACUCUCAGGGACACAGCACAUCCCGCAUUACGGAAGAGGUCUACAGCAUCUUGGUGCAGCAGGUUCUUCAGAUCUUGGCCAUUUACCGAGAGGAUCUUCAACAGAGGAUUGAGCAUCA
B3: chr1:163115838:163115839:-_ENSG00000143248_ENST00000313961|hu_hu|FALSE|FALSE (ssRNA)
RNA: GGGAGUUCUACAGUCCGACGAUCUGGCUUAGUUUGAUUCUGUUACUAAAUUCUGUGAAUCAUUAUUUAAUCAAAUCUACUAAAGAUUAGAAAAAAUUCUAGCAAGACUUAUAAUCAUGAAAUACAGAAUUAAAAGUUUAAACCCAACAGAGGAUUGAGCAUCA
B4: 16701266_16701386_3632_CDS_ENSG00000145555_ENST00000513610|human|control|control (ssRNA)
RNA: GGGAGUUCUACAGUCCGACGAUCAGCGUUCUGGGGCAUGCAGUAGGUGGACUCGCCGCUGGAGGAGUUGUGUAGGCUCCCGGAGUCCUGCACUGAUGGGGCGAGCAGCACCGUGCUGUCCGCACUGGGGCUGGUGGGCACCACCAACAGAGGAUUGAGCAUCA
B5: chr16:18872548:18872549:-_ENSMUSG00000022706_ENSMUST00000023391|mus_hu|FALSE|FALSE (ssRNA)
RNA: GGGAGUUCUACAGUCCGACGAUCUUGGUAGUUAGGGAUCGGUGGUGUGUAAUGUGGCCCUUCCUUCUCAAAGGGGAACAGGUUAGGAUCCCGCUUGAUGGCCUCAGCAUGGAGCUUCGGGGAUUCCAGUUGCAGUUCCUCCAGCAACAGAGGAUUGAGCAUCA
B6: chr3:125295114:125295115:-_ENSG00000144909_ENST00000296220|hu_mus|FALSE|FALSE (ssRNA)
RNA: GGGAGUUCUACAGUCCGACGAUCAACAUUAAAAAAAGACAUGGCAUUCUGACUUGGUCUCCGCUGGGAUAUGGGAGAAUUACCACUAGAUGCCAGCGAGAAGCUCCGGGACUUCAGGGGAGGGUUAUUCUUUCCAAUAGCUUCCAACAGAGGAUUGAGCAUCA
B7: chr15:83907949:83907950:-_ENSMUSG00000018865_ENSMUST00000082365|mus_mus|motif|central (ssRNA)
RNA: GGGAGUUCUACAGUCCGACGAUCCUGGUAUUAUAGAUAAAAGUCAAACGUGAGGUCACACUUCCCCAUCUUCUGUUUGUACACGGGAUCAAACUUCUCGUUCAUGGAGACGGUGAAGAUGUCCUUCCACAGCCCAACUCUUCCCAACAGAGGAUUGAGCAUCA
B8: 11913194_11913314_1211_3pUTR_ENSMUSG00000022205_ENSMUST00000022816|mouse|control|control (ssRNA)
RNA: GGGAGUUCUACAGUCCGACGAUCGUUUCACACUUUUUACAAGUCUAAUCUAGUUUAAUAUCUGACUUUAUAACCAUCACCCUAGCACAAAUGUUUACUGAGUGACAGCUCAUCAGACAUCAAAGUCACUAUGUUCUGUAAACUCAACAGAGGAUUGAGCAUCA
B9: chr18:33598288:33598289:-_ENSMUSG00000042834_ENSMUST00000171533|mus_hu|motif|central (ssRNA)
RNA: GGGAGUUCUACAGUCCGACGAUCAGUCAGAAUGAUUAAAAACUGGUUUGAUGACACCUAUUUGUCCACUGUAAAUUCUCGGAAGCAAGGCUCAGAGUCCCAUAGUUUCUUCUUAUACUUGAUGAUUUACACAGAAAAAAAUCCCAACAGAGGAUUGAGCAUCA
B10: 87967838_87967958_4594_CDS_ENSG00000188994_ENST00000369577|human|control|control (ssRNA)
RNA: GGGAGUUCUACAGUCCGACGAUCCAACAGGGGUGGUACAGUUGGAUUUGGCAUCACCGUUGCAUUUACUUGUGAUGCAUCAGAGACACAACCUGUUGAAACAUGAGAAAGCAUUUCGGCACCCUCAAAUGUACUGGGAAUGCCCAACAGAGGAUUGAGCAUCA
B11: chr5:110834802:110834803:-_ENSG00000164211_ENST00000296632|hu_hu|FALSE|FALSE (ssRNA)
RNA: GGGAGUUCUACAGUCCGACGAUCUUACCCAUAUUAACAACAACAAAACAGUAGACACAGGAAUACUAACACAUAAACAACUAACAUUAAACACGGAAAUGGAUUUCGAGAUGUGUGCAUGUACACAAAAAAAUAUAUACAAAGCAACAGAGGAUUGAGCAUCA
B12: chr3:148802587:148802588:-_ENSG00000071794_ENST00000310053|hu_mus|hu_hu_hu_mus_False|1_98 (ssRNA)
RNA: GGGAGUUCUACAGUCCGACGAUCUCCAACAACUUGUCCUCUCAAACUUCCAAAUAAAACCAAAUCUUGCUCUUCAUCACUCGUUAGGAAGUCAUCUGGAGGAAUAAUGUCUUGGAAUUCAAAAUGUGGCAAGAAAGUUGGAUACAACAGAGGAUUGAGCAUCA
B13: chr5:22970553:22970554:+_ENSMUSG00000029004_ENSMUST00000094962|mus_hu|motif|central (ssRNA)
RNA: GGGAGUUCUACAGUCCGACGAUCAGCACUGGAAGUUUCAUCAAAAUUAGGAGUGGUAAAUAUGCCUACUUCAUUUUUGCGGAUAAGGACUGAUGGAGGAGGGGAAGCCGGAGGUGUCGGAGGAGGACGAGCACCAUAAUUAUGCAACAGAGGAUUGAGCAUCA
B14: chr7:65705475:65705476:+_ENSG00000169902_ENST00000304842|hu_hu|hu_hu_hu_mus_True|38_38 (ssRNA)
RNA: GGGAGUUCUACAGUCCGACGAUCUCUAUUCGGUGAUGGCACUCCAUGGCAUGCUGGCCCAGGUAAAACACGGUCACAGAACUAAUCACCAGACACGCCAAUAGUAAGUUCUGCUUCAGCUUCCCAACCAUCUUGAUGUGGUUACAACAGAGGAUUGAGCAUCA

biological target: T1, UNK ZnF1-3; assay: nsRBNS (natural sequence RNA bind-n-seq); RBNS binding buffer (assumed for nsRBNS): 25 mM Tris pH 7.5, 150 mM KCl, 3 mM MgCl2, 0.01% Triton X-100, 500 ug/ml BSA, 20 U/ml SUPERase-In, 4 C; UNK is unkempt and MSI1 is Musashi-1; names of the RNAs are library labels; protein concentration not given here; high values mean tight binding

Going from B1 to B2, the binding signal rises from 0.864 enrichment R to 1.28 enrichment R.

Compared with B3, B4 is higher in binding signal: 0.763 enrichment R for the first, 1.09 enrichment R for the second.

First: B5
Second: B6
The binding signal of the first is lower: 0.763 enrichment R for the first, 2.07 enrichment R for the second.

First: B7
Second: B8
The binding signal of the first is higher: 0.484 enrichment R for the first, 0.38 enrichment R for the second.

Going from B9 to B10, the binding signal falls from 1.08 enrichment R to 1.02 enrichment R.

First: B11
Second: B12
The binding signal of the first is higher: 1.6 enrichment R for the first, 0.891 enrichment R for the second.

Compared with B13, B14 is lower in binding signal: 2.88 enrichment R for the first, 0.68 enrichment R for the second.
